# The supplement of paper PMC12423691
# This is one part of the list. Binding of human transcription factors and regulators to the viral nucleoprotein by AlphaScreen, crude cell-free proteins, amounts not normalised, one pass. Fold of the Venus control; higher = more signal. No active / inactive call. Single-pass screen; sequences are the whole Swiss-Prot entries looked up by name.
# Test system: nucleoprotein N of Crimean-Congo hemorrhagic fever virus
# Assay: AlphaScreen luminescence signal relative to Venus negative control (fold); higher = stronger binding to CCHFV N
# Description: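 AlphaScreen binding of cell-free made, FLAG-GST-tagged human transcription factors and regulators (crude translation products) to biotinylated N protein; signal as fold of the FLAG-GST-Venus control. One pass.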
row,Substance,AlphaScreen luminescence signal
1,"HOXB4, P17483",6.79
2,"KLF7, O75840",2.98
3,"FIGLA, Q6QHK4",2.47
4,"ZNF546, Q86UE3",3.63
5,"ZNF157, P51786",2.56
6,"ZKSCAN8, Q15776",1.49
7,"ZNF268, Q14587",3.63
8,"ZNF274, Q96GC6",3.53
9,"HNRNPAB, Q99729",3.81
10,"HOXB3, P14651",3.67
11,"HOXC5, Q00444",4.23
12,"TAL1, P17542",3.26
13,"HOXA6, P31267",2.84
14,"ZNF304, Q9HCX3",2.47
15,"TAL2, Q16559",6.19
16,"TAF5L, O75529",2.37
17,"SOX15, O60248",3.95
18,"DMRTB1, Q96MA1",3.07
19,"ZNF26, P17031",3.26
20,"ZNF300, Q96RE9",2.33
21,"BHLHA15, Q7RTS1",2.19
22,"ZNF43, P17038",2.23
23,"SPEN, Q96T58",1.4
24,"EP300, Q09472",1.91
25,"ZNF621, Q6ZSS3",1.53
26,"TLX1, P31314",4.47

row,Substance,AlphaScreen luminescence signal
1,"ZNF320, A2RRD8",3.07
2,"ZNF175, Q9Y473",2
3,"STAT2, P52630",2.23
4,"ALX1, Q15699",1.81
5,"HNRNPK, P61978",5.16
6,"SOX6, P35712",3.91
7,"HIVEP3, Q5T1R4",1.58
8,"PAX5, Q02548",2.84
9,"LYL1, P12980",2.09
10,"ZNF606, Q8WXB4",2.51
11,"KLF4, O43474",10.8
12,"ARNT2, Q9HBZ2",1.81
13,"E2F4, Q16254",1.26
14,"E2F3, O00716",4.37
15,"EGR4, Q05215",3.3
16,"ZNF761, Q86XN6",2.74
17,"PSMA6, P60900",2
18,"TFAP2B, Q92481",3.58
19,"HCFC1, P51610",2.19
20,"NFIA, Q12857",3.49
21,"ZNF816, Q0VGE8",4.09
22,"SOX14, O95416",2.14
23,"SOX4, Q06945",13.9
24,"PAX7, P23759",2.47
25,"GFI1, Q99684",2.05
26,"ZSCAN20, P17040",1.63

row,Substance,AlphaScreen luminescence signal
1,"ZNF302, Q9NR11",2.05
2,"E2F2, Q14209",2.09
3,"ZNF699, Q32M78",4.05
4,"HOXC8, P31273",2.74
5,"MEF2C, Q06413",1.77
6,"PAX3, P23760",3.58
7,"ZNF7, P17097",2.51
8,"TGIF2, Q9GZN2",2.19
9,"HOXB5, P09067",8.47
10,"VSX1, Q9NZR4",1.86
11,"HOXA3, O43365",4.79
12,"ZNF112, Q9UJU3",4.23
13,"ZNF354A, O60765",2.42
14,"ARNTL, O00327",2.65
15,"HOXA7, P31268",3.07
16,"MSX2, P35548",2.28
17,"ZNF182, P17025",5.77
18,"ZSCAN12, O43309",1.12
19,"EAF2, Q96CJ1",1.02
20,"ZNF33A, Q06730",2.65
21,"SOX13, Q9UN79",4.93
22,"HOXD8, P13378",1.21
23,"EGR3, Q06889",5.35
24,"ZNF829, Q3KNS6",1.86
25,"MEOX2, P50222",3.49
26,"KLF6, Q99612",3.21

row,Substance,AlphaScreen luminescence signal
1,"EZH2, Q15910",2.47
2,"HMGN3, Q15651",13.8
3,"ZNF85, Q03923",5.12
4,"ZNF496, Q96IT1",2.47
5,"TFAP2A, P05549",4.28
6,"ZNF354B, Q96LW1",3.58
7,"TFAP2E, Q6VUC0",4.33
8,"NFIC, P08651",3.49
9,"NCOA3, Q9Y6Q9",1.4
10,"PITX2, Q99697",1.72
11,"ZNF677, Q86XU0",2.51
12,"CRX, O43186",2.7
13,"KLF13, Q9Y2Y9",5.16
14,"ZFP82, Q8N141",2.09
15,"RCAN1, P53805",2.42
16,"ZNF461, Q8TAF7",2.37
17,"ZNF607, Q96SK3",1.49
18,"HOXA10, P31260",4.05
19,"ZNF436, Q9C0F3",1.95
20,"KLF3, P57682",3.81
21,"PAX9, P55771",2.19
22,"EPAS1, Q99814",2.05
23,"PAX6, P26367",3.77
24,"HOXB2, P14652",2.79
25,"ZNF239, Q16600",2.33
26,"ZNF552, Q9H707",2.51

row,Substance,AlphaScreen luminescence signal
1,"HOXC4, P09017",5.12
2,"ZNF432, O94892",3.63
3,"CREBBP, Q92793",1.26
4,"HOXB6, P17509",6.6
5,"ZFP28, Q8NHY6",3.16
6,"ZNF396, Q96N95",1.67
7,"ZNF90, Q03938",2.51
8,"TFAP2C, Q92754",3.53
9,"MIXL1, Q9H2W2",1.12
10,"ZSCAN16, Q9H4T2",2.6
11,"SOX12, O15370",3.91
12,"ZSCAN32, Q9NX65",1.12
13,"SP4, Q02446",1.91
14,"ZNF780A, O75290",2.56
15,"ZNF345, Q14585",1.58
16,"HOXA2, O43364",3.16
17,"ZNF254, O75437",5.3
18,"ZKSCAN5, Q9Y2L8",1.91
19,"ZFP14, Q9HCL3",2.7
20,"HOXA5, P20719",19
21,"ISX, Q2M1V0",1.72
22,"MYB, P10242",2.47
23,"ZFP30, Q9Y2G7",2.6
24,"MTF1, Q14872",1.26
25,"MAFF, Q9ULX9",2.56
